Our source for the binding values is article PMC2680334, “Polo-Like Kinase 1 Directs Assembly of the HsCyk-4 RhoGAP/Ect2 RhoGEF Complex to Initiate Cleavage Furrow Formation” (PLoS Biology, 2009).

Sequences of proteins named here, by UniProt entry; tags and fusion partners are left off. A change or cut given only in a name is not applied to a line headed by its entry. A line that says so, or that is headed by a name, gives the form on record, which may keep a tag or linker.
microtubule-associated protein Prc1, endogenous (O43663-4, form named): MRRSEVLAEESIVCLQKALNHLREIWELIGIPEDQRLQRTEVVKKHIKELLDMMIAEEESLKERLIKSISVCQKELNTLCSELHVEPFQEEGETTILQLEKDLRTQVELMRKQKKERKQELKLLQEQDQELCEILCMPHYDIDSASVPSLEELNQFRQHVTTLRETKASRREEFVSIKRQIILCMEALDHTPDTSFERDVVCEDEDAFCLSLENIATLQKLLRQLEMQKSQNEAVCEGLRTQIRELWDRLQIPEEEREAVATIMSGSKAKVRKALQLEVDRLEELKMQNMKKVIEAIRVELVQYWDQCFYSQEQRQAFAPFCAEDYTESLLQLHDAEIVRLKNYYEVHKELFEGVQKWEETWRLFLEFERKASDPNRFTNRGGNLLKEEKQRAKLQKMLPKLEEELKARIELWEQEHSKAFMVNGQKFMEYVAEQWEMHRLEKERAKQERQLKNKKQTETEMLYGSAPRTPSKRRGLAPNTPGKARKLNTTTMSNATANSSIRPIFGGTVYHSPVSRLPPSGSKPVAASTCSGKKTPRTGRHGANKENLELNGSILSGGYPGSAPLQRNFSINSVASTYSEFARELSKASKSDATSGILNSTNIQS
Myc-Prc1-ST601/2AA (O43663-4, form named): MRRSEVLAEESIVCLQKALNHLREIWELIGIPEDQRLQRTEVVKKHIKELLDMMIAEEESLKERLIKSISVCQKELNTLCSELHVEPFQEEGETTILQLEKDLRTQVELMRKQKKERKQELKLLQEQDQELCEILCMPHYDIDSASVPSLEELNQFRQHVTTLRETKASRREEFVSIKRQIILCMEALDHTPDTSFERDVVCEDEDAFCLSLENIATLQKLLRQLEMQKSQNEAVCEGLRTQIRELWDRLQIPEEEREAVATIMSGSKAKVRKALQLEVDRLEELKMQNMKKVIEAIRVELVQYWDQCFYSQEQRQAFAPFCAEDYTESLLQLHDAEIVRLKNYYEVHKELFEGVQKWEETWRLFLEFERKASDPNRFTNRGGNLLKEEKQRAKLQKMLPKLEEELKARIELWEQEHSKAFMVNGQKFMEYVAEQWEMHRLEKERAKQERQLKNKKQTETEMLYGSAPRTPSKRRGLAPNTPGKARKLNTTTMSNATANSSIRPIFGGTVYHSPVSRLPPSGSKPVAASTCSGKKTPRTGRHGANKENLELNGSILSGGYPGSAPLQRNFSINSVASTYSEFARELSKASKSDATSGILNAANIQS

The target of experiment [1] is Polo-like kinase 1 (Plk1), endogenous (human (endogenous in HeLa)) (UniProt P53350). Kind of experiment: co-IP; 2 µg anti-Plk1 antibody with 1.5–2 mg HeLa lysate, 12–15 h at 4°C, protein A-sepharose; cells blocked with nocodazole and forced out of mitosis with 22.5 µM purvalanol A.
The target in experiment [2] is T1, chitin-binding domain (CBD)–Ect2-BRCT (1–421), immobilised (UniProt Q9H8V3).
T1 sequence: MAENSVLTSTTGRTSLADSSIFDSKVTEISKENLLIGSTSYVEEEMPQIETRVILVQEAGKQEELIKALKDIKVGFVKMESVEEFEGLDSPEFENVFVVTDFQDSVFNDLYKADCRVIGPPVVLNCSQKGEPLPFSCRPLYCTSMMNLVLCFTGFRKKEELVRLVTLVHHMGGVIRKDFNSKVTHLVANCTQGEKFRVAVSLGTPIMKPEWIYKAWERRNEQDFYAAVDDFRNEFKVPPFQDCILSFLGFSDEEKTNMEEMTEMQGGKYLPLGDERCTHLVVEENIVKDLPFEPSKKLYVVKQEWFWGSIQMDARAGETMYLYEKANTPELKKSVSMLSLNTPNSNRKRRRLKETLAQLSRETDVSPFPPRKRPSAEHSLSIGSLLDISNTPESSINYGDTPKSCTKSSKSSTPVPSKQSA
Nature of the experiment: pull-down; 10 µg CBD–Ect2-BRCT (1–421) or a derivative on chitin beads with about 650 µg HeLa lysate, 12–15 h at 4°C, washed in lysis buffer, Western blot; cells in anaphase or telophase after release from MG132, or blocked with nocodazole (0.04 µg/ml) with or without 22.5 µM purvalanol A for 30 min; only the target purified.

In experiment [3] the target is T1, chitin-binding domain (CBD)–Ect2-BRCT (1–421), immobilised. Kind of experiment: pull-down; as a1, lysate of HeLa cells in metaphase (MG132 block); only the target purified.
The target is the same in experiment [4]. Nature of the experiment: condition: only cells treated with 5 µg/ml nocodazole (full microtubule destabilization); pull-down; as a1, lysate of cells treated with 5 µg/ml nocodazole (microtubules fully destabilised) and 22.5 µM purvalanol A; only the target purified.
The target is the same in experiment [5]. Kind of experiment: pull-down; as a1, lysate of cells depleted of Prc1 by siRNA, nocodazole then 22.5 µM purvalanol A; only the target purified.
Experiment [6] has the same target. Nature of the experiment: pull-down; as a1, lysate of cells treated with 100 nM BI-2536 (Plk1 inhibitor) after release from MG132 or together with 22.5 µM purvalanol A; only the target purified.
The target in experiment [7] is T2, Ect2-BRCT, yeast two-hybrid fusion (UniProt Q9H8V3).
T2 sequence: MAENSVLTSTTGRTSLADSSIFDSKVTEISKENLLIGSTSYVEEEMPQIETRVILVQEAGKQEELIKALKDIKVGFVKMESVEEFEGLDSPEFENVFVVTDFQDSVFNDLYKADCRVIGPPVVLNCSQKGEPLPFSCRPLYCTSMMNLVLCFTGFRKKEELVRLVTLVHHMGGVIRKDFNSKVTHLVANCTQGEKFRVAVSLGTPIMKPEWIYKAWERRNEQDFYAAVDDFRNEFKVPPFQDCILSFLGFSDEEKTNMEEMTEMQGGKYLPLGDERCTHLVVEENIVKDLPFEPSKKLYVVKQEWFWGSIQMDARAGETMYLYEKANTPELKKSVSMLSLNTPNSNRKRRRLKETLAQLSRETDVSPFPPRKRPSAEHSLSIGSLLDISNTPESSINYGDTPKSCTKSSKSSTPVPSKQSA
Kind of experiment: two-hybrid; bait in pGBT9, prey in pGAD424, S. cerevisiae PJ69-4A; serial dilution on medium lacking adenine and histidine.

No constants are given. Whether binding was seen depends on the method and setting. For some of these results: Binding seen in cells or lysates may run through a third protein. Some results given as binding are weak or reduced against the parent protein; the word gives no strength. For some of these results: Where a sequence is shown, tags or fusion partners need not be part of it.

Regarding “microtubule-associated protein Prc1, endogenous (from UniProt O43663-4 1-606)”, the binding result in experiment [1] was “binds”.

In the case of “Myc-Prc1-ST601/2AA (from UniProt O43663-4 1-606)”, the binding result in experiment [1] is recorded as “no binding”.

B1: kinesin-like protein Mklp1, endogenous (protein, UniProt Q02241 1-960)
chain: MKSARAKTPRKPTVKKGSQTNLKDPVGVYCRVRPLGFPDQECCIEVINNTTVQLHTPEGYRLNRNGDYKETQYSFKQVFGTHTTQKELFDVVANPLVNDLIHGKNGLLFTYGVTGSGKTHTMTGSPGEGGLLPRCLDMIFNSIGSFQAKRYVFKSNDRNSMDIQCEVDALLERQKREAMPNPKTSSSKRQVDPEFADMITVQEFCKAEEVDEDSVYGVFVSYIEIYNNYIYDLLEEVPFDPIKPKPPQSKLLREDKNHNMYVAGCTEVEVKSTEEAFEVFWRGQKKRRIANTHLNRESSRSHSVFNIKLVQAPLDADGDNVLQEKEQITISQLSLVDLAGSERTNRTRAEGNRLREAGNINQSLMTLRTCMDVLRENQMYGTNKMVPYRDSKLTHLFKNYFDGEGKVRMIVCVNPKAEDYEENLQVMRFAEVTQEVEVARPVDKAICGLTPGRRYRNQPRGPVGNEPLVTDVVLQSFPPLPSCEILDINDEQTLPRLIEALEKRHNLRQMMIDEFNKQSNAFKALLQEFDNAVLSKENHMQGKLNEKEKMISGQKLEIERLEKKNKTLEYKIEILEKTTTIYEEDKRNLQQELETQNQKLQRQFSDKRRLEARLQGMVTETTMKWEKECERRVAAKQLEMQNKLWVKDEKLKQLKAIVTEPKTEKPERPSRERDREKVTQRSVSPSPVPLSSNYIAQISNGQQLMSQPQLHRRSNSCSSISVASCISEWEQKIPTYNTPLKVTSIARRRQQEPGQSKTCIVSDRRRGMYWTEGREVVPTFRNEIEIEEDHCGRLLFQPDQNAPPIRLRHRRSRSAGDRWVDHKPASNMQTETVMQPHVPHAITVSVANEKALAKCEKYMLTHQELASDGEIETKLIKGDIYKTRGGGQSVQFTDIETLKQESPNGSRKRRSSTVAPAQPDGAESEWTDVETRCSVAVEMRAGSQLGPGYQHHAQPKRKKP
In the case of B1, in experiment [2], the binding result is “binds”.

B2: HsCyk-4/MgcRacGAP, endogenous (protein, UniProt Q9H0H5 1-632)
chain: MDTMMLNVRNLFEQLVRRVEILSEGNEVQFIQLAKDFEDFRKKWQRTDHELGKYKDLLMKAETERSALDVKLKHARNQVDVEIKRRQRAEADCEKLERQIQLIREMLMCDTSGSIQLSEEQKSALAFLNRGQPSSSNAGNKRLSTIDESGSILSDISFDKTDESLDWDSSLVKTFKLKKREKRRSTSRQFVDGPPGPVKKTRSIGSAVDQGNESIVAKTTVTVPNDGGPIEAVSTIETVPYWTRSRRKTGTLQPWNSDSTLNSRQLEPRTETDSVGTPQSNGGMRLHDFVSKTVIKPESCVPCGKRIKFGKLSLKCRDCRVVSHPECRDRCPLPCIPTLIGTPVKIGEGMLADFVSQTSPMIPSIVVHCVNEIEQRGLTETGLYRISGCDRTVKELKEKFLRVKTVPLLSKVDDIHAICSLLKDFLRNLKEPLLTFRLNRAFMEAAEITDEDNSIAAMYQAVGELPQANRDTLAFLMIHLQRVAQSPHTKMDVANLAKVFGPTIVAHAVPNPDPVTMLQDIKRQPKVVERLLSLPLEYWSQFMMVEQENIDPLHVIENSNAFSTPQTPDIKVSLLGPVTTPEHQLLKTPSSSSLSQRVRSTLTKNTPRFGSKSKSATNLGRQGNFFASPMLK
Consider B2, for which the binding entry was “binds weakly” in experiment [3], “no binding” in experiment [1], “no binding” in experiment [4] and “binds” in experiment [2].

B3: HsCyk-4-4D–EGFP (protein, UniProt Q9H0H5 1-632)
chain: MDTMMLNVRNLFEQLVRRVEILSEGNEVQFIQLAKDFEDFRKKWQRTDHELGKYKDLLMKAETERSALDVKLKHARNQVDVEIKRRQRAEADCEKLERQIQLIREMLMCDTSGSIQLSEEQKSALAFLNRGQPSSSNAGNKRLSTIDEDGSILSDIDFDKTDEDLDWDSDLVKTFKLKKREKRRSTSRQFVDGPPGPVKKTRSIGSAVDQGNESIVAKTTVTVPNDGGPIEAVSTIETVPYWTRSRRKTGTLQPWNSDSTLNSRQLEPRTETDSVGTPQSNGGMRLHDFVSKTVIKPESCVPCGKRIKFGKLSLKCRDCRVVSHPECRDRCPLPCIPTLIGTPVKIGEGMLADFVSQTSPMIPSIVVHCVNEIEQRGLTETGLYRISGCDRTVKELKEKFLRVKTVPLLSKVDDIHAICSLLKDFLRNLKEPLLTFRLNRAFMEAAEITDEDNSIAAMYQAVGELPQANRDTLAFLMIHLQRVAQSPHTKMDVANLAKVFGPTIVAHAVPNPDPVTMLQDIKRQPKVVERLLSLPLEYWSQFMMVEQENIDPLHVIENSNAFSTPQTPDIKVSLLGPVTTPEHQLLKTPSSSSLSQRVRSTLTKNTPRFGSKSKSATNLGRQGNFFASPMLK
For the molecule B3, the binding result in experiment [5], in experiment [6] and in experiment [2] was “binds” throughout.

B4: HsCyk-4-4A–EGFP (protein, UniProt Q9H0H5 1-632)
chain: MDTMMLNVRNLFEQLVRRVEILSEGNEVQFIQLAKDFEDFRKKWQRTDHELGKYKDLLMKAETERSALDVKLKHARNQVDVEIKRRQRAEADCEKLERQIQLIREMLMCDTSGSIQLSEEQKSALAFLNRGQPSSSNAGNKRLSTIDEAGSILSDIAFDKTDEALDWDSALVKTFKLKKREKRRSTSRQFVDGPPGPVKKTRSIGSAVDQGNESIVAKTTVTVPNDGGPIEAVSTIETVPYWTRSRRKTGTLQPWNSDSTLNSRQLEPRTETDSVGTPQSNGGMRLHDFVSKTVIKPESCVPCGKRIKFGKLSLKCRDCRVVSHPECRDRCPLPCIPTLIGTPVKIGEGMLADFVSQTSPMIPSIVVHCVNEIEQRGLTETGLYRISGCDRTVKELKEKFLRVKTVPLLSKVDDIHAICSLLKDFLRNLKEPLLTFRLNRAFMEAAEITDEDNSIAAMYQAVGELPQANRDTLAFLMIHLQRVAQSPHTKMDVANLAKVFGPTIVAHAVPNPDPVTMLQDIKRQPKVVERLLSLPLEYWSQFMMVEQENIDPLHVIENSNAFSTPQTPDIKVSLLGPVTTPEHQLLKTPSSSSLSQRVRSTLTKNTPRFGSKSKSATNLGRQGNFFASPMLK
Consider B4, for which the binding entry in experiment [2] is “no binding”.

B5: HsCyk-4-wt–EGFP (protein, UniProt Q9H0H5 1-632)
chain: MDTMMLNVRNLFEQLVRRVEILSEGNEVQFIQLAKDFEDFRKKWQRTDHELGKYKDLLMKAETERSALDVKLKHARNQVDVEIKRRQRAEADCEKLERQIQLIREMLMCDTSGSIQLSEEQKSALAFLNRGQPSSSNAGNKRLSTIDESGSILSDISFDKTDESLDWDSSLVKTFKLKKREKRRSTSRQFVDGPPGPVKKTRSIGSAVDQGNESIVAKTTVTVPNDGGPIEAVSTIETVPYWTRSRRKTGTLQPWNSDSTLNSRQLEPRTETDSVGTPQSNGGMRLHDFVSKTVIKPESCVPCGKRIKFGKLSLKCRDCRVVSHPECRDRCPLPCIPTLIGTPVKIGEGMLADFVSQTSPMIPSIVVHCVNEIEQRGLTETGLYRISGCDRTVKELKEKFLRVKTVPLLSKVDDIHAICSLLKDFLRNLKEPLLTFRLNRAFMEAAEITDEDNSIAAMYQAVGELPQANRDTLAFLMIHLQRVAQSPHTKMDVANLAKVFGPTIVAHAVPNPDPVTMLQDIKRQPKVVERLLSLPLEYWSQFMMVEQENIDPLHVIENSNAFSTPQTPDIKVSLLGPVTTPEHQLLKTPSSSSLSQRVRSTLTKNTPRFGSKSKSATNLGRQGNFFASPMLK
Take B5: the binding result in experiment [2] is given as “binds”.

B6: HsCyk-4-Nt-4D, yeast two-hybrid fusion (domain or fragment, UniProt Q9H0H5 1-288)
chain: MDTMMLNVRNLFEQLVRRVEILSEGNEVQFIQLAKDFEDFRKKWQRTDHELGKYKDLLMKAETERSALDVKLKHARNQVDVEIKRRQRAEADCEKLERQIQLIREMLMCDTSGSIQLSEEQKSALAFLNRGQPSSSNAGNKRLSTIDEDGSILSDIDFDKTDEDLDWDSDLVKTFKLKKREKRRSTSRQFVDGPPGPVKKTRSIGSAVDQGNESIVAKTTVTVPNDGGPIEAVSTIETVPYWTRSRRKTGTLQPWNSDSTLNSRQLEPRTETDSVGTPQSNGGMRLHD
Regarding B6, in experiment [7], the binding entry is on record as “binds”.
